In the supplement of paper PMC11417369:
This is one part of the list.

These sequences were tested on PfAP2-HC AP2 domain (GST-tagged) (assay: gcPBM binding intensity (ln(normalized median fluorescence intensity)); higher = stronger DNA binding).
Procedure, shortened: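 GST-tagged P. falciparum DNA-binding domains, expressed in E. coli (about 25 μg on average), were applied for 1 h to an Agilent 4 × 180k array of primer-extended double-stranded 36-bp intergenic genomic probes plus negative controls. The binding buffer was 1× PBS with 1% milk, 0.2 mg/ml BSA, 0.5% salmon testes DNA and 0.03% Triton X-100. Bound protein was detected with Alexa488 anti-GST antibody and scanned at 488 nm. Binding intensity is the highest Masliner-normalised natural-log median intensity across replicate spots of either probe orientation.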

Sequence | gcPBM binding intensity (ln)
TACCCTGATCGGCATGCATGTAAGTAACAAATATAT [TGCATGCA_site153] | 9.56
ATTTAGAAATATATTTGTACATATATATATATATAT [XGTACX_site7129] | 9.75
ATTCAAACAAATTAATGTACATATATATAAGATATT [XGTACX_site1531] | 9.62
ATAAAAAGAAAAAAGGGTACACTATACTATTTAAAA [XGTACX_site4467] | 9.59
ATATATACATATAAATGTACATAATTATTATGCACA [XGTACX_site1261] | 9.54
CTACATATTAATATATGTACATATTAATATATCTAA [XGTACX_site7118] | 9.33
TGTTGATAAAAAATAAAAAATAAAAAAATAAAATAT [TGCATGCA_negctrl_site559] | 9.71
TATGATGATATAAAAACACACACATATAATATAATA [CACACA_site8321] | 10.1
TTAAAGCTTACATATACACACATACATAAATTCATA [CACACA_site8785] | 9.94
GTAAAATAAAATATATGTACATATGTATATGAGGTA [XGTACX_site3743] | 10
GACATATTCCCCCCCACACACACACCCACATACATA [CACACA_site2302] | 11.1
TTTTGATCATCCAAAATATCTTCATCTGAACTACTA [CACACA_negctrl_site939] | 9.6
TTTTTATATAACCTTCTTAATTCTTTTTTTTTTTTT [XGTACX_negctrl_site591] | 9.47
AAAACAAAATTATGAACATGCAAGGTAAAATTGTAA [TGCATGCA_site775] | 10.1
AATATAATATAATGCACACATAAAAAAAAAATCAAA [CACACA_site122] | 9.89
AAAATATATATATATATATATATATGTATACTCCTA [XGTACX_negctrl_site312] | 9.72
TTATTTATAAATATTAATTTTTTTTTTTTTTTTTTT [XGTACX_negctrl_site105] | 9.27
TTTTATGTTTCAAAATGTACATTAAAATATACCATA [XGTACX_site1713] | 9.4
CATATGCATACTATACGTACATATGTATATAATATA [XGTACX_site7738] | 9.7
TTTTATTATTGAATACTAGTATATATAATATGAAGA [CACACA_negctrl_site910] | 9.41
ATATATATATTTTTTAAACACACACCGAAATATTTG [CACACA_site8937] | 9.99
TTAATTAAAACGAATACACACATAAATATATAAAAG [CACACA_site1254] | 9.87

Sequence | gcPBM binding intensity (ln)
GTACAAATGTTGTGTATATATACACACATACATATA [XGTACX_negctrl_site276] | 9.86
AACTTACTTGGACATACACACATATAGATTTATATA [CACACA_site7412] | 9.88
ATGTAGTTTTATCAGTGTACAAGTATTTTATCACAT [XGTACX_site8958] | 9.82
TATTATTATCTTACCACACACAATGTACGAAAAGAT [CACACA_site352] | 9.92
AAACATATATATATTATATATATATATATATATATG [GTGCAC_negctrl_site182] | 9.44
TAACATATAATATTCACACACATATATATATTATAT [CACACA_site988] | 10.2
AAATTAAAAAGACATTCACACATTTTCATCTTAACA [CACACA_site5221] | 9.68
TAAAATATTATAAAATGTACAAAACATATAAATATA [XGTACX_site5315] | 9.65
TGTAGGTATTATTATACACACATAAAAAAAAAAAAA [CACACA_site3598] | 9.71
TATATAAACATATAAACATGCAATATATATATGTTA [TGCATGCA_site765] | 9.57
AAAAATATATAACAAAGTACATATATATTTAGTAAT [XGTACX_site8791] | 9.85
GGAAAAAAACTTATGAGTACACATAAATATAGCACA [XGTACX_site6686] | 9.66
AAAAAAATTAAATCAAGTACTCATTCTTAAATTATA [XGTACX_site1274] | 9.31
TATATTTTCTATAGGTGTACTCCACATGCGGTGTTA [XGTACX_site7471] | 9.55
ATATTGATACATCCAATACACACTACATATAATGAT [CACACA_site1874] | 9.98
TCCCTCTTTTTATTCTCACACACGTTTATATATAAA [CACACA_site1644] | 10
ATATATGATGTAAAAGCACACATATATATATATATA [CACACA_site9330] | 9.64
AATATATATAAATATTGTACAAAAATATATATATAT [XGTACX_site2910] | 9.68
AAACATCTTTACAACGTCCCTCCTTTTTTATGTACC [GTGCAC_negctrl_site528] | 9.79
ATTTTATTCTAAAAAGGTACACATATTATTTTATGA [XGTACX_site7233] | 9.31
TAAATAAGGAAGGAAACACACATTAAAAAATAAATA [CACACA_site618] | 9.87
AACAGAAGCACATACACACACTCAAAAAAAAAAAAA [CACACA_site5652] | 10

Sequence | gcPBM binding intensity (ln)
TCTTACTAATATCGCACACACATATGTAGACGGGAT [CACACA_site87] | 10.3
TATTTATATGGACACACACACATATAAATAAATAAA [CACACA_site6346] | 10.2
ATGGCCATAATATAGACACACATATATAAATATATA [CACACA_site2230] | 9.76
CGATATGTTCAATATTGTACTATTTATAATAATATG [XGTACX_site3051] | 9.57
TATTGACAAAATAGCTGTACAAATTAAAAGAAATAA [XGTACX_site4415] | 9.55
CTTAAAAAAAAAAAATGTACACATAAAAAAAATACA [XGTACX_site6700] | 9.6
TTTAATTGATAATGAAGACAATTATATGCATCCAAA [TGCATGCA_negctrl_site138] | 9.49
TTATTGTCTTCTCATATACACACTTTTATGACTATC [CACACA_site3142] | 9.97
ATAATAATATATATTACACACGCATCGTTCATTTAT [CACACA_site8752] | 9.94
ATTAATATATATGGATGTACTTATGTATGTATGCAT [XGTACX_site2263] | 9.68
GGAAAAACCATTCGCACACACACATAATATATAATA [CACACA_site1424] | 10.2
CATGTATAATATAATACACACTATATAATATACACC [CACACA_site5267] | 9.92
ATATCATTAAAAGGATGTACATATGTGTATACAATA [XGTACX_site871] | 9.84
TAATATCTAAAAAATATATTTTTTATTTTTTATTAA [CACACA_negctrl_site510] | 9.43
TACATACATACATACACACACACATATATATACATA [CACACA_site853] | 11
AATTTAAAATAATATTGTACTTAGATATAAATATGA [XGTACX_site4198] | 9.47
TAAAAAATATAAACTGCACACACAAAAAAAAAAGAG [CACACA_site8379] | 10.3
ATGGTACACAAATATACATGCAATAATAAAAAAAAA [TGCATGCA_site879] | 9.73
TTTTTATTACATAATTAAAAAAAATAATAAAATAAA [XGTACX_negctrl_site249] | 9.27
ATATATATATATTTATGTACTTAATAATTTATTCAC [XGTACX_site7301] | 9.65
TTTTTTTTTTAATTCGCACACTGTCTTCATACAATT [CACACA_site1379] | 10.2
TGCAGTCTGGAGAAAAGTACATAGTATCTGGTAACC [XGTACX_site2019] | 9.52

Sequence | gcPBM binding intensity (ln)
TCATTTCACGGACACACACACACAATATATTTCCTT [CACACA_site6023] | 10.9
AAAAAATATTTTTACAGTACATATATATAAAATGTT [XGTACX_site3215] | 9.6
TAACAAAGGAAAGATATACACACGTATGCATGATAA [CACACA_site2520] | 10.1
CATTAATATATATATACATGCACGTTTTAAAAAAAA [TGCATGCA_site875] | 9.58
ATGGGAATATAATTATGTACATATAAAAATTATAAA [XGTACX_site5336] | 9.6
TAATTATGCAGACACACACACACACGCAACTAAAAA [CACACA_site7253] | 10.5
GTGTAAATAAGGATATATAACAATCAACAAAACATA [CACACA_negctrl_site1759] | 9.9
TGTATGAAATATATTACACACATATATAATATATAT [CACACA_site793] | 9.8
ATATTTTTCAAACATCGTACATTATGAGTTAAAATT [XGTACX_site584] | 9.34
ATACACAAAATTATTAAATCAATAAATATATGGTTT [CACACA_negctrl_site353] | 9.57
AAAATACATAAATGTTCACACATTAAAAAGCAGAAG [CACACA_site5346] | 9.88
TTTATAAAGAAACACACACACATGTGAACATAAAAA [CACACA_site1908] | 10.2
TATGTCAGATGAAAGGGTACATAATATAATATATTT [XGTACX_site8062] | 9.55
TTATAAATGAATAAATGTACAAAATATATATATATA [XGTACX_site8829] | 9.66
CATAACATAAAATAGGTGCACAAAAATTGTAATTGA | 10.3
CACACCCACCAACACACACACACACCCACCCATATA [CACACA_site366] | 11
TTGTAATATATGTATTGTACGCATATAACAATTATT [XGTACX_site3652] | 9.62
TTCAGTGTATACATATGTACATATATATATATATAT [XGTACX_site1621] | 10
ATTTTTATTTGTTACGCATGCATAAAAGTGCATACT [TGCATGCA_site547] | 9.63
ATTTGTAATATTAAATGTACAGGTAAGAAATATCAG [XGTACX_site1562] | 9.71
TAAGGAAAAAAAATATGTACTTATAGTTCCTTCTTT [XGTACX_site2202] | 9.62
TAAATATATTTATACACACACACCAAAGCAATAGAT [CACACA_site7393] | 10.5
